Reference: ChEMBL document CHEMBL4888484, “Replenishing the malaria drug discovery pipeline: Screening and hit evaluation of the MMV Hit Generation Library 1 (HGL1) against asexual blood stage Plasmodium falciparum ,using a nano luciferase reporter read-out” (2022)
The campaign covered roughly 150,000 compounds. About 540 (0.36%) showed an effect of 50% or more. The list shows a part of the results.

What follows are compounds tested on Plasmodium falciparum (assay: Primary screen in NF54 nanoGlo assay, in single point, at 2uM, 72h; a lower Z score goes with more inhibition). Conditions: timepoint 72 hour.
Format: functional, Erythrocyte
`Cc1nscc1C(=O)Nc1cnoc1C(C)C` was tested, and the “% Inhibition” value was 3% and the Z score was -0.62. For `C[C@H]1COCCN1CCN(Cc1ccccc1)CC1(O)CCOCC1`, the “% Inhibition” value was 1% and the Z score was -0.16. For `CCn1cc(CN(C)Cc2ccc(CN3CCCC3)s2)c(C)n1`, the “% Inhibition” value was -2% and the Z score was 0.33. For `O=C(NCC1CC2CCC1C2)C1CC12CCS(=O)(=O)CC2` (centres undefined), the “% Inhibition” value was -7% and the Z score was 1.42. `CC1CCN(C(=O)c2c(-c3cccnc3)noc2[C@H](C)O)CC1` was tested, and the “% Inhibition” value was -5% and the Z score was 0.65. With `Cc1nc(C(C)C)sc1C(=O)N1C[C@H]2CCC[C@@]2(CO)C1` the “% Inhibition” value was -5% and the Z score was 0.92. `COCCOCC(=O)N(C1CC1)C1(C#N)CCC1` was tested, and the “% Inhibition” value was -14% and the Z score was 2.54. For `Cc1ccc(C)c(CNc2cc([C@H]3CCOC3)nc(N)n2)c1`, the “% Inhibition” value was -14% and the Z score was 1.54. For `CCc1nn2c(c1-c1ccc(OC)c(S(=O)(=O)NCc3cccc(C)c3)c1)NC(=O)CCC2=O`, the “% Inhibition” value was -1% and the Z score was 0.13. For `CNC(=O)[C@H]1CCN(S(=O)(=O)N2CCc3ccccc3C2)C1`, the “% Inhibition” value was -2% and the Z score was 0.29. `CCN(CC)C(=O)[C@@H](NC(=O)c1cccs1)C1CCN(C(=O)NC(C)C)CC1` was tested, and the “% Inhibition” value was -6% and the Z score was 0.75. With `CCS(=O)(=O)NCCN(C)c1ccccc1N(C)C` the “% Inhibition” value was 1% and the Z score was -0.12. `CNC1CCN(S(=O)(=O)c2sc(C)nc2C)CC1` was tested, and the “% Inhibition” value was -7% and the Z score was 0.96. `CCO[C@@H](C)c1nc(-c2ccncc2)nn1-c1cc(C)ccn1` was tested, and the “% Inhibition” value was -8% and the Z score was 1.56. In the case of `Cc1nc(C(=O)N(Cc2cccc(OCc3cccs3)c2)[C@H]2CCCCNC2=O)cs1`, the “% Inhibition” value is reported as 8% and the Z score is reported as -0.97. For `NC1CC2CC(C(=O)N3CCc4c(cccc4C(F)(F)F)C3)CC12` (centres undefined), the “% Inhibition” value was 0% and the Z score was 0.04. In the case of `O=C1[C@@H](N2CCOCC2)CCCN1Cc1cccc(Cl)c1`, the “% Inhibition” value is reported as 3% and the Z score is reported as -0.36. `CCc1nc(CN(C)Cc2cc3n(n2)CCN(C(=O)N(C)C)C3)no1` was tested, and the “% Inhibition” value was -1% and the Z score was 0.1. With `CCc1ccccc1NC(=O)C1CCN(S(=O)(=O)c2ccc3c(c2)nc(C)n3C2CCCC2)CC1` the “% Inhibition” value was -8% and the Z score was 1.11. `CC(C)n1nccc1NC(=O)NC[C@@H](CO)Cc1cccs1` was tested, and the “% Inhibition” value was -1% and the Z score was 0.15. `C[C@@H](Cn1cc(Br)cn1)Nc1ccc(CC#N)cc1` was tested, and the “% Inhibition” value was -14% and the Z score was 1.16. With `C#CC1CCN(C(=O)OC(C)(C)C)C(C)C1` (centres undefined) the “% Inhibition” value was 5% and the Z score was -0.56. In the case of `COc1ncccc1C(=O)N(C1CCCC1)[C@H]1CCS(=O)(=O)C1`, the “% Inhibition” value is reported as 0% and the Z score is reported as 0.03. In the case of `O=C(Nc1cccc2c1CCO2)N1CCC(O)(C2CCC2)CC1`, the “% Inhibition” value is reported as -16% and the Z score is reported as 3.1. For `COCCC1(CNC(=O)NCc2c(C)n[nH]c2C)CC1`, the “% Inhibition” value was -11% and the Z score was 2.05. `O=C(CCC=Cc1ccccc1)N1CCC(OC2CCCC2)CC1` was tested, and the “% Inhibition” value was -18% and the Z score was 1.89. In the case of `COc1ccc2c(c1)N=C(c1ccc(F)cc1)N=C(c1cccs1)N2`, the “% Inhibition” value is reported as -7% and the Z score is reported as 0.76. With `O=C(CCC1CCCC1)NC1CC(O)C(CO)C1` (centres undefined) the “% Inhibition” value was -9% and the Z score was 1.38. In the case of `CC(C)N(CC(=O)N(CCc1c[nH]c2ccccc12)Cc1ccccc1)S(=O)(=O)c1ccc(F)cc1`, the “% Inhibition” value is reported as 3% and the Z score is reported as -0.39. With `Cc1cccc(Cl)c1NC(=O)N(CCO)CC(F)F` the “% Inhibition” value was -15% and the Z score was 2.44. `CC(C)CN(Cc1csc(COc2ccc(Cl)cc2)n1)C(=O)c1cccs1` was tested, and the “% Inhibition” value was -8% and the Z score was 1.15. In the case of `CN1C(=O)[C@](C)(C(=O)Nc2ccc(Cl)cc2F)Oc2cccnc21`, the “% Inhibition” value is reported as 0% and the Z score is reported as 0.02. For `CS(=O)(=O)C[C@H](NCc1nc2c(s1)CCC2)c1ccccc1`, the “% Inhibition” value was 34% and the Z score was -4.64. In the case of `CCCc1nccn1Cc1noc(C(C)(C)C)n1`, the “% Inhibition” value is reported as -12% and the Z score is reported as 1.55. With `CCCN(CCN1CCN(CC)CC1)C(=O)c1ccn2ccnc2c1` the “% Inhibition” value was -35% and the Z score was 4.11. With `O=C(Cn1cc(S(=O)(=O)N2CCOCC2)ccc1=O)Nc1ccc(F)c(F)c1` the “% Inhibition” value was -4% and the Z score was 0.8. `CCC1CC(NC(=O)NCC(F)(F)c2ccc(F)cc2)CCO1` (centres undefined) was tested, and the “% Inhibition” value was -9% and the Z score was 1.63. For `CN(CCCN1CCCC1)C(=O)NCc1c(F)cc(F)c(F)c1F`, the “% Inhibition” value was 4% and the Z score was -0.72. `CN1CCCC[C@@H]1CCOc1ccc(N)cc1` was tested, and the “% Inhibition” value was -14% and the Z score was 1.78. In the case of `COc1ccccc1N(CCC(N)=O)C(=O)c1cccnc1OC`, the “% Inhibition” value is reported as 0% and the Z score is reported as 0.05. For `O=C(CC1CCCCNC1=O)Nc1ccccc1C(O)C(F)(F)F` (centres undefined), the “% Inhibition” value was -9% and the Z score was 1.34. `O=C(c1cccs1)n1c(=S)sc2ccccc21` was tested, and the “% Inhibition” value was -7% and the Z score was 1.09. With `Nc1nnc(CCNc2nc3c(c(=O)[nH]2)Cc2ccccc2OC3)s1` the “% Inhibition” value was -4% and the Z score was 0.37. In the case of `CCC[C@H](N)C(=O)N1CCCc2sccc2C1`, the “% Inhibition” value is reported as -2% and the Z score is reported as 0.41. For `CCCN(CCN1CCN(CC)CC1)C(=O)c1cccnc1C`, the “% Inhibition” value was -8% and the Z score was 0.79. For `O=C(Nc1ccon1)c1cc2c(s1)CCCCCC2`, the “% Inhibition” value was -21% and the Z score was 2.42. In the case of `CN(C)c1cc(C(=O)N(C)C2CCCCC2)ccn1`, the “% Inhibition” value is reported as -6% and the Z score is reported as 0.7. For `O=C(c1ccoc1)N1CCOc2ccc(N3CCOCC3)cc2C1`, the “% Inhibition” value was -7% and the Z score was 1.28. With `Cc1cccc(CN[C@@H](C)C2(N3CCOCC3)CCCC2)c1` the “% Inhibition” value was -12% and the Z score was 1.36. `CN(CCC1CCOCC1)Cc1c[nH]nc1-c1ccc(-c2ccccc2)cc1` was tested, and the “% Inhibition” value was -9% and the Z score was 1.29. For `C[C@@H](Cc1ccccc1F)C(=O)N(C)S(C)(=O)=O`, the “% Inhibition” value was -4% and the Z score was 0.39. In the case of `CC1(CNC2CCC3(CCCC3)CC2)COC1`, the “% Inhibition” value is reported as 14% and the Z score is reported as -1.81. For `C[C@@H](Cn1cccn1)OC(=O)c1cnn(C)c1`, the “% Inhibition” value was -4% and the Z score was 0.56. `CCC(N[C@@H](C)CO)c1cccc(Cl)c1F` (some centres undefined) was tested, and the “% Inhibition” value was -11% and the Z score was 1.19. With `O=C(c1ccc(=O)[nH]c1)N1CCN(C(=O)c2cc(F)c(Cl)cc2F)CC1` the “% Inhibition” value was -2% and the Z score was 0.32. With `CC1CCCC(CNC(=O)N[C@@H]2CCCN(S(=O)(=O)N(C)C)C2)O1` (some centres undefined) the “% Inhibition” value was 3% and the Z score was -0.54. In the case of `CC(=O)N1CCN[C@@H](Cc2ccccc2)C1`, the “% Inhibition” value is reported as -2% and the Z score is reported as 0.25.
